Sequences and labels used below:
B1: LINE1-mini (parent)
chain: GGCAGAGCUCAACACAGCGUGGCAAAGUGGCUGUGGCUAGACUGCC

The source gives no read counts; variants with many changes may rest on few reads.

Variants of B1 are the subject of this series. The series is described as follows: self-cleavage, relative activity (ratio to wild type); higher = more cleavage; in vitro, sequencing; the parent is a self-cleaving ribozyme.
Turning to GACAGAGCUCAUCACAGCGUGGCAAAGUGGCUGUGGCUAGCCUGCC, the self-cleavage was found to be 0.15.

For the variant GGCAGAGCUCAACACAGCGUGGCAAAGUGGCAGUGUCUAGACUGCA, the self-cleavage was found to be 0.19.

With GGCAGAGAUCAACAAAGCCUGGCAAAGUGGCUGUGGCUACACUGCC, the self-cleavage was 0.15.

For GGCAGAGCUCAACACAGCGUGGUUAAGUGGCGGUGGCUAGACUGCC, the self-cleavage turned out to be 0.84.

For GGCAGAGCUCAACACCGAGGGGCAAAGUGGCUGUGGCUAGACUGCC, the self-cleavage was determined as 0.01.

As for GGCAGAGAUCAACAUAGCGUGGCUAAGUGGCUGUGGCUAGACUGCC, the self-cleavage came out at 0.43.

For the variant GGCAGAGCUCAACAUAGCGUGGCAAAAUGGCUGUGGCCAGAGUGCC, the self-cleavage was found to be 0.04.

Turning to GGCAGAGUUCAACACAGCGUGGCAAAGUGGCUGUGGCCUGACUGCC, the self-cleavage was 0.13.

As for GGCAGAGCUCAACACAGCGUGGAAAAUUGGCUGUGGCUAGACUACC, the self-cleavage was found to be 0.33.

For the variant GGCAGAGCUCAACCCAGCGUGCCAAAGUGGCUGUGGCUAGACUGCA, the self-cleavage was determined as 0.03.

GGCAGAGCUCAACACAGUGUGGCAAAGUGGCUUUGGCUUGACCGCC: the self-cleavage came out at 0.03.

With GGCAGAGCUCAACACCGAGUGGCAAAGUGGCUCUGGCUAGACUGCC, the self-cleavage was determined as 0.

On to GGCAGAGCUCAACACAGCGUGGCAAAGUUGCUAUUUCUAGAUUGCC, for which the self-cleavage was 0.03.

On to GGCUGAGCUCAACACAGUCUGGCAAAGUAGCUGUGGCUCGACUGCC, for which the self-cleavage was 0.05.

Regarding CGCAGAGCUCCACACGGCGUUGCAAAGUGGCUGUGGCUAGACUGGC, the self-cleavage amounted to 0.01.

Turning to AGCAGAGCUCAACACUGCGUGGCAAAGUGGCUGUUGCUAGACUGCC, the self-cleavage is 0.18.

Turning to GGCAGAGCUCAACAAAACGUGGCAAAGUGGCUGUGGCAAGCCUGCC, the self-cleavage was 0.02.

Take GGCAGAGCUCAGCACAGCGUGGAAAAGUGGCUGUAGCUAGACUGCC: the self-cleavage was found to be 0.02.

Consider GGCAGAGCUCAACAGAGAGUGGCAAACUGGCUGUGGCUAGACUGCC, for which the self-cleavage was 0.03.

For the variant AGCAGAGCUCAACACAGCGCGGCAAAGUGGUUGUGGGUAGACUGCC, the self-cleavage came out at 0.01.

Regarding CGCAGUGCUCAACACCGCGUGUGAAAGUGGCUGUGGCUAGACUGCC, the self-cleavage is 0.01.

With GGGAGAGCACAACACAGCGUGGCAAAGUGGCUGUGCCUUGACUGCC, the self-cleavage is 0.02.

As to GGCAGAGCUCAACACAGCGAGGUGAAGUGGCUGUGGCUAGACUGCA, the self-cleavage was found to be 0.45.

Take GGCAGAGUUCAACACAGCGUGGCAAUGUUGCUGUUGCUAGACUGCC: the self-cleavage was 0.15.

Take GGCAGGGCUCAACACAGCGUGGCAAAGUCGCCGCGGCUAGACUGCC: the self-cleavage turned out to be 0.08.

As to GGCAGCGUUCAACCCAGCGUGGCAAAGUGGCUGUGGCUAGACUGCC, the self-cleavage was 0.22.

As to CGCAGAGCUCAACACAGCGUGGCAAAGCGGCUGUGGCUAGAAUGCC, the self-cleavage worked out at 0.03.

As to GGCAGAGCACAACACAGCGUGGCAAAGUGGCUGUGGCUCGACUCCC, the self-cleavage was 0.01.

Consider GGCAGAGCUGAACACAGCGUGGCAAAGUGGCUGCGGCUGGACUGCC, for which the self-cleavage is 0.03.

GGCAGCGCUCACCACAGCGUGGCAAAGUGGCUGUCGCUAGACUGCC: the self-cleavage is 0.

As for GGAAGAGCUCAACACAGCGUGGCAAAGUGGCUUUGGGUAGACUGCC, the self-cleavage is 0.18.

Turning to GGAAUAGCUCAACUCAGCGCGGCAAAGUGGCUGUGGCUAGUCUGCC, the self-cleavage amounted to 0.22.

For the variant GGCAGUGCUCAACACAGCGCGGCUAAGUGGCUGUAGCUAGACUGUC, the self-cleavage turned out to be 0.1.

GGCAGAGCUCAUCACAGCGUGACAAAGUGGCUGUGGCUACACUGCC: the self-cleavage was determined as 0.05.

On to GGCAGAGCUCAACACAGCGUAGCAAAGUGGCGGUGGCUAUACUGCC, for which the self-cleavage stood at 0.06.

CCCGGAGCUCAACACAGCGUGGCAAAGUGGCUGUGGCUAGACUGCC: the self-cleavage is 0.09.

In the case of GGCAGAGCUCAACACAGCGUGGCACAGCGGCUGUGGCUUGUGUGCC, the self-cleavage turned out to be 0.04.

As to GGCAGAGCUCAAACCAGCGUGGCAAAGUGGCUGUGGCAAGACUGCC, the self-cleavage amounted to 0.

Consider GGCAGAUCUCAACACAGCGUGGCAAAGUGGCUUUUGCUAUACUGCA, for which the self-cleavage worked out at 0.03.

As to GGCAGAGCUCAACACCGCGUGGCCAAGUGGCUGUGGCUACACUGCC, the self-cleavage came to 0.01.

For the variant GGCAGAGCUCAAAACAACGUGUCAAAGUGGCUAUGGCUAGACUGCC, the self-cleavage was 0.02.

As to GGCAGAGCUCAACACAGCGUCUAAAAGUGGCUGUGGCUAGACUGCC, the self-cleavage turned out to be 0.67.

For the variant GGCAGAGCUAAACACAGCGUGGCAAAGUUGCUGUGACUAGACUGCC, the self-cleavage is 0.01.

As to AGCUGCGCUCAUCACAGCGUGGCAAAGUGCCUGUGGCUAGACUGCC, the self-cleavage was 0.08.

In the case of GGCACAGCUCAACACAGCGCGGCAAAGUGACUGUGGCUAGACUGCC, the self-cleavage came out at 0.04.

With GGCAGAGCUCAACACAGCGUGGCUUAGGGGCUGUGGCUAGACUGCC, the self-cleavage came out at 0.23.

As for GGCAGAGCUGAACACAUCGUGGCAAAGUGAUUGUGGCUAGACUACC, the self-cleavage turned out to be 0.32.

Consider GGUAGAGCUCAACACAGCGUGGCAAAGUGGCUGUAGAUAGACUGCC, for which the self-cleavage was 0.31.

On to GGCAAAGCUCAACACAGCUCGGCAAAGUUGCUGUGGCUAGACUACC, for which the self-cleavage amounted to 0.07.

For GGCAGAGCUCAUCACAGUGUGGCAAAGUGGCUGUGGCUAGACUACC, the self-cleavage was found to be 0.18.

Regarding GUCAGAGCUCGACACAGCGUGGCAAAGUGGCUGUGACUAGACUGCC, the self-cleavage is 0.01.

As to GGCCGAGCUCAACACAGCGUGGCAAAGUGGCUGUGGCUUUACUGCC, the self-cleavage amounted to 0.06.

As for GGCCGAGUUCAAGACAGCUUGGCAAAGUGGCUGUGGAUAGACUGCC, the self-cleavage stood at 0.03.

Take GGCAGAGCUCUAAUCAGCGUGGCAAAGUGGCAGUGGCUAGAGUGCC: the self-cleavage was 0.03.

In the case of GGCAGAGCUCAACAUAGCGUAGCAAAGUGGCUGUGGCUAGACAGCC, the self-cleavage stood at 0.05.

As for GGUAGAGCUCAACACAGAGGGGCAAAGUGGCUGUGUCUAGACUGCC, the self-cleavage was 0.07.

Source of the values: the RNAGym collection of RNA variant scans (doi:10.7554/elife.90254).
